Consider 42 molecules from publication PMC4336329 (PLoS ONE, 2015).

In all, about 310,000 compounds went through this assay and about 14,000 (4.5%) showed an effect of 50% or more. The effect is printed as a negative number. Some of the results follow.
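Also: peak tail current of the secondary pulse compared with the same well before compound.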

In this experiment the target is human ether-à-go-go-related gene (hERG) potassium channel (human, UniProt Q12809). Put plainly: primary screen, population patch clamp on CHO cells stably expressing hERG.
Sequence of human ether-à-go-go-related gene (hERG) potassium channel (Q12809 whole entry, looked up): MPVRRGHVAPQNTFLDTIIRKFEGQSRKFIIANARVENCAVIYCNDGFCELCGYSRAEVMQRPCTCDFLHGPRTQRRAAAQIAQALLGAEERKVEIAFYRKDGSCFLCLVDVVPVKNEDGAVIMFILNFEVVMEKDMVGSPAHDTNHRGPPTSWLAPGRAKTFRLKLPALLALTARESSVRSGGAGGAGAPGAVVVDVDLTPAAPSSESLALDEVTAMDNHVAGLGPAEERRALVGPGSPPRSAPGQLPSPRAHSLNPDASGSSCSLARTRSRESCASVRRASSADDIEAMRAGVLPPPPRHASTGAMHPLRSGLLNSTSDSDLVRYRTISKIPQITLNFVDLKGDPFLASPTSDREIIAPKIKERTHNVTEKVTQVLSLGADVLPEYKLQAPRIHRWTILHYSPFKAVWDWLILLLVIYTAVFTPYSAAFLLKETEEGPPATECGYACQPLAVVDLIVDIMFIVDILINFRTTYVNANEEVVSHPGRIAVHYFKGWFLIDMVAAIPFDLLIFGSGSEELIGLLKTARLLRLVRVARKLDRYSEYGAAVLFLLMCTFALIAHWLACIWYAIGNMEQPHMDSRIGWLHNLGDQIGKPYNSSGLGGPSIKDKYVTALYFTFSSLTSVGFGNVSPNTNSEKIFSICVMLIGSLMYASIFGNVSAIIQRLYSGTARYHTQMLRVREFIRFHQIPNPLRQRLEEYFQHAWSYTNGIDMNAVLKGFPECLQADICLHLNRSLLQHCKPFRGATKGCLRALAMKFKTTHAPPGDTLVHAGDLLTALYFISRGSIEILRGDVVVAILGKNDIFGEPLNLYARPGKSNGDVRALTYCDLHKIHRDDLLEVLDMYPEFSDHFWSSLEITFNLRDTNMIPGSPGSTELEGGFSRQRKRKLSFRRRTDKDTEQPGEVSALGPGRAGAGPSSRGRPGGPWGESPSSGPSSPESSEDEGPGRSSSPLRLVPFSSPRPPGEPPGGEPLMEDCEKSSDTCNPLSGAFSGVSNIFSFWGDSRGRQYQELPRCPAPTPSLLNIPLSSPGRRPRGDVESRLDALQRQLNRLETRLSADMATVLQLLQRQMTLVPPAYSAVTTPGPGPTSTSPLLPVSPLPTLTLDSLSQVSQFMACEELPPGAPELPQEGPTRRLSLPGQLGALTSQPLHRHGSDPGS
Take `O=C(c1cccc(S(=O)(=O)N2CCc3ccccc3C2)c1)N1CCN(c2ccccc2)CC1`: the “hERG current change (%, negative = inhibition) at 10uM” value was 3.99%.

Take `NC(=O)c1ccc(C(=O)c2ccc([N+](=O)[O-])cc2)cc1`: the “hERG current change (%, negative = inhibition) at 10uM” value is listed as 0.854%.

With `CN1CCN(S(=O)(=O)c2ccc(Oc3ccc(Br)cc3F)nc2)CC1`, the “hERG current change (%, negative = inhibition) at 10uM” value is on record as -30.7%.

On to `Cc1c(NC(=O)CSCc2c(F)cccc2Cl)c(=O)n(-c2ccccc2)n1C`, for which the “hERG current change (%, negative = inhibition) at 10uM” value is reported as -14.6%.

In the case of `Cc1ccc(NC(=O)CN(C)C(=O)Cn2cc(C(F)(F)F)cc(Cl)c2=O)cc1`, the “hERG current change (%, negative = inhibition) at 10uM” value was -1.42%.

For the molecule `CCOC(=O)c1c(-c2ccc(OC)cc2)csc1NC(=O)COc1ccc2c(C)cc(=O)oc2c1`, the “hERG current change (%, negative = inhibition) at 10uM” value is listed as 22.8%.

Turning to `Cc1ccc(C(=O)CCC(=O)CCC(=O)O)cc1`, the “hERG current change (%, negative = inhibition) at 10uM” value came to 9.2%.

Turning to `Cc1ccsc1/C=N/NC(=O)Nc1ccccc1`, the “hERG current change (%, negative = inhibition) at 10uM” value is 48%.

For `Cn1cc([N+](=O)[O-])c(C(=O)Nc2ccc(-c3nc4ccccc4o3)cc2)n1`, the “hERG current change (%, negative = inhibition) at 10uM” value was 12%.

Consider `CCC(CC)c1ncc[nH]1`, for which the “hERG current change (%, negative = inhibition) at 10uM” value amounted to 17.8%.

In the case of `Cc1c(CC(=O)O)c(=O)oc2cc(OCc3ccc(Cl)cc3)ccc12`, the “hERG current change (%, negative = inhibition) at 10uM” value is reported as 30.2%.

Turning to `CN(CC(=O)Nc1ccncc1)S(=O)(=O)c1ccccc1`, the “hERG current change (%, negative = inhibition) at 10uM” value is -0.871%.

With `COc1ccc(-n2nc3c(N4CCC(C(=O)NC5CCCCC5)CC4)nnc(C)c3c2C)cc1`, the “hERG current change (%, negative = inhibition) at 10uM” value is listed as -5.39%.

For `N#CC(C#N)=Cc1cc2ccccc2nc1N1CCCCC1`, the “hERG current change (%, negative = inhibition) at 10uM” value came out at 2.22%.

In the case of `O=[N+]([O-])c1cccc(S(=O)(=O)NCc2ccncc2)c1`, the “hERG current change (%, negative = inhibition) at 10uM” value was found to be 19.4%.

With `COc1ccc(-c2c(-c3cc(OC)cc(OC)c3)n(C)c3ccc(-c4ccc(OC)nc4)cc23)cc1`, the “hERG current change (%, negative = inhibition) at 10uM” value was 4.5%.

Regarding `O=C(NCCN1CCCC1=O)Nc1ccccc1`, the “hERG current change (%, negative = inhibition) at 10uM” value is reported as -5%.

For the molecule `COc1ccc2cc3c(N)nn(C(=O)c4cccc(F)c4)c3nc2c1`, the “hERG current change (%, negative = inhibition) at 10uM” value is 14%.

As for `COCc1ccc(-c2c(-c3ccsc3)sc3ccccc23)cc1`, the “hERG current change (%, negative = inhibition) at 10uM” value is reported as 16.2%.

As to `COc1ccc(NC2CCCN(C(=O)CSc3ccccc3)C2)cc1OC` (stereo not drawn), the “hERG current change (%, negative = inhibition) at 10uM” value is -19.6%.

`COc1ccc(CN2CCNC(=O)C2CC(=O)N(C)Cc2ccncn2)c(OC)c1` (stereo not drawn): the “hERG current change (%, negative = inhibition) at 10uM” value was determined as 12.6%.

With `Nc1nonc1-n1nnc(C(=O)N/N=C\c2cccc(Cl)c2)c1CN1CCOCC1`, the “hERG current change (%, negative = inhibition) at 10uM” value is on record as -44.4%.

For the molecule `CC(C)(C)NC(=O)CN(Cc1ccc2c(c1)OCO2)C(=O)CNC(=O)c1cccs1`, the “hERG current change (%, negative = inhibition) at 10uM” value is given as 18.9%.

For `CCOc1ccc(C(=O)NCCN2CCCCC2)c(OCC)c1`, the “hERG current change (%, negative = inhibition) at 10uM” value was -23.1%.

As to `O=C(NC1CCCc2ccccc21)C(Cc1ccccc1)NS(=O)(=O)c1cccs1` (stereo not drawn), the “hERG current change (%, negative = inhibition) at 10uM” value is reported as -13%.

As for `O=C(CCN1C(=O)CSc2ccccc21)Nc1ccc(C(F)(F)F)cc1`, the “hERG current change (%, negative = inhibition) at 10uM” value was -11%.

As for `Cc1noc(NS(=O)(=O)c2ccc(NC(=O)c3nn(-c4ccccc4)ccc3=O)cc2)c1C`, the “hERG current change (%, negative = inhibition) at 10uM” value amounted to 23.9%.

Turning to `O=C(Nc1ccc(Br)cc1)C1CC=CCC1C(=O)OCC1CCCO1` (stereo not drawn), the “hERG current change (%, negative = inhibition) at 10uM” value came out at 5.38%.

As to `Cc1ccc(S(=O)(=O)N(C)CCCC(=O)NC(C)(C)C)cc1`, the “hERG current change (%, negative = inhibition) at 10uM” value came to 13.3%.

As to `Cn1cc(C(=O)N/N=C/c2c(O)ccc3ccccc23)ccc1=O`, the “hERG current change (%, negative = inhibition) at 10uM” value is reported as 25.9%.

For `O=C(O)c1ccc(N2CCc3ccccc32)c([N+](=O)[O-])c1`, the “hERG current change (%, negative = inhibition) at 10uM” value is listed as 25.3%.

On to `CN1C(=O)C(C)(C)c2cc(S(=O)(=O)N3CCC(C(=O)NCc4ccc(F)cc4)CC3)ccc21`, for which the “hERG current change (%, negative = inhibition) at 10uM” value is -10.3%.

Consider `CC[N+]12CCC(CC1)C(=C(c1ccccc1)c1ccccc1)C2.[Br-]`, for which the “hERG current change (%, negative = inhibition) at 10uM” value is recorded as -73.6%.

On to `Cc1ccc(-n2nnc3c(=O)n(Cc4ccccn4)cnc32)cc1C`, for which the “hERG current change (%, negative = inhibition) at 10uM” value amounted to 22.3%.

As to `FC(F)(F)c1ccc(Sc2n[nH]c(C(F)(F)F)n2)nc1`, the “hERG current change (%, negative = inhibition) at 10uM” value came out at 19.5%.

As to `O=C(O)CSc1cc(C(=O)c2cc(F)ccc2O)cn2c(=O)c3c(-c4ccccc4)csc3nc12`, the “hERG current change (%, negative = inhibition) at 10uM” value came out at 16.5%.

Take `Cc1ccc(CSCC(=O)N2CCN(c3ccc(F)cc3)CC2)cc1`: the “hERG current change (%, negative = inhibition) at 10uM” value is -32.7%.

Regarding `Nc1nc(-c2ccco2)nn1S(=O)(=O)c1ccccc1`, the “hERG current change (%, negative = inhibition) at 10uM” value is 6.91%.

With `COc1ccc(NC(=O)CC2C(=O)N(c3ccc(Cl)cc3)C(=S)N2CCc2ccccn2)cc1` (stereo not drawn), the “hERG current change (%, negative = inhibition) at 10uM” value is -13.9%.

With `N#Cc1ccccc1S(=O)c1ccccc1C(=O)Nc1ccccc1` (stereo not drawn), the “hERG current change (%, negative = inhibition) at 10uM” value was found to be 2.42%.

Take `CCOC(=O)c1ccc(Oc2c(C)oc3c(CN4CCN(C)CC4)c(O)ccc3c2=O)cc1`: the “hERG current change (%, negative = inhibition) at 10uM” value was -4.33%.

On to `CSc1ccc(S(=O)(=O)Nc2ccc(S(=O)(=O)Nc3ccc(C)cc3)cc2)cc1`, for which the “hERG current change (%, negative = inhibition) at 10uM” value is on record as -0.453%.
